PubChem BioAssay AID493208 (National Center for Advancing Translational Sciences (NCATS), 2011)
In all, about 44,000 compounds went through this assay and about 340 (0.77%) were called active. Another 5% or so got no clear call; they are omitted. Calls follow the shape of the dose curve; as a rule, active = well fitted inhibition curve with a large enough effect; inconclusive = small, poorly fitted or top-dose-only effect; inactive = flat fitted curve, though single readings scatter. This is one part of the list.

Assay: Acumen qHTS Assay for Inhibitors of the mTORC1 Signaling Pathway in MEF (Tsc2-/-, p53-/-) Cells: Sytravon;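 also: plate controls were DMSO for no effect and rapamycin for full effect; nearly all actives have a fitted effect of over 50% in size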
Settings: phospho-rpS6 immunofluorescence/PI, 24 h; series mostly up to 38.3 µM; activity change, negative = inhibition: at the top concentration
How it was run: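 Tsc2-/-, p53-/- mouse embryonic fibroblasts (empty-vector line) exposed to compound 24 hrs at 37 C, fixed, immunostained for phospho-rpS6 and counterstained with propidium iodide. Acumen laser scanning gives % positive cells from Alexa 488/PI ratio, thresholded using 7.5 nM rapamycin; PI count gives viability.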

Activity change, negative = inhibition, inactive:
CCOC(=O)c1cc(-c2ccccc2)n(-c2cccc(C(=O)Nc3cccc(C(C)=O)c3)c2)c1C -5.12%
COc1cccc(N2CCN(C(=O)CN3C(=O)COc4ccc(S(=O)(=O)N5CCC(C)CC5)cc43)CC2)c1 -16.2%
Cc1oc2c(c(C)cc3oc(=O)c(CC(=O)NCc4ccccc4)c(C)c32)c1C 1.29%
COc1ccc(C)cc1-n1nnc(C(=O)Nc2cccc(SC)c2)c1C 3.4%
Cc1c(Cl)cccc1NC(=O)Cn1cc2c(n1)CCCC2 5.15%
COc1ccc(C(=O)NCC(c2cccnc2)N2CCc3ccccc32)cc1OC (stereo unspecified) 9.36%
Cc1cccc(CNC(=O)c2ccc(NC(=O)N3CCSc4ccccc43)cc2)c1 2.47%
O=C(CSc1nc2c([nH]c3ccccc32)c(=O)n1-c1ccccc1)N1CCCCCC1 -1.54%
CC1CCc2c(sc(NC(=O)COc3ccccc3C(C)(C)C)c2C#N)C1 (stereo unspecified) 16.9%
Cc1ccc(NC(=O)Cn2c(SCc3ccc(F)cc3)nc3cccnc32)cc1F 1.56%
O=C(O)c1ccc(NC(=O)c2cc3ccccc3o2)cc1 8.69%
CCc1ccc(-n2nc(C)c3c(C)cc(=O)n(CC(=O)Nc4ccccc4C(=O)OC)c32)cc1 -11.8%
CSCCC(NS(=O)(=O)c1ccc2c(c1)oc(=O)n2C)C(=O)N1CCN(c2ccc(F)cc2)CC1 (stereo unspecified) -0.389%
CCCCOc1ccc(C(=O)N/C(=C\c2ccc(Br)cc2)C(=O)NC2CCCCC2)cc1 3.83%
Cc1nc2c3ccccc3nc(NNC(=O)CCC(=O)N3CCN(c4cccc(C(F)(F)F)c4)CC3)n2n1 -1.27%
Cc1cccc(-n2ccnc2SCC(=O)Nc2ccc3c(c2)OCO3)c1 -1.41%
O=C(Nc1cccc(F)c1)C1CCN(c2nc3ccccc3[nH]2)CC1 -15.7%
CCc1cccc(NC(=O)CCS(=O)(=O)c2ccc3nc(C)sc3c2)c1 1.92%
COc1ccc(CNc2ncnc3c2cnn3-c2ccc(C)c(C)c2)cc1 0%
COc1ccc(CN2C(=O)c3oc4ccccc4c(=O)c3C2c2ccc(O)c(OC)c2)cc1 (stereo unspecified) -2.45%
CCCCSCCCNC(=O)C1CCC(CNS(=O)(=O)c2c(C)cc(C)cc2C)CC1 (stereo unspecified) -10.6%
CCOc1ccc(CNC(=O)c2ccc3c(c2)nc2n3CCC(C)C2)cc1OC (stereo unspecified) -15.8%
COc1cccc(C(=O)NC2CC(=O)N(c3ccc4c(c3)OCCO4)C2)c1OC (stereo unspecified) -8.23%
CC(=O)c1ccc(NC(=O)CCc2c(C)nn(-c3ccc(N4CCCCC4)nn3)c2C)cc1 -3.42%
Cc1csc2nc(CCNS(=O)(=O)c3ccc(F)cc3)cn12 0.195%
CCOC(=O)c1c(NC(=O)c2ccc(OC)c(OC)c2)sc2c1CCCCC2 0.351%
O=C(Nc1ccc2oc(-c3ccc(Cl)cc3)nc2c1)c1ccc2ccccc2c1 5.21%
CCN(CC)c1cc(C)c2cc(NC(=O)c3ccc(F)cc3Cl)ccc2n1 -4.35%
Cn1c(=O)oc2cc(S(=O)(=O)N3CCC(C(=O)N4CCN(c5ccc(Cl)cc5)CC4)CC3)ccc21 -3.46%
CCOc1ccccc1NC(c1nnc(-c2ccccc2)o1)c1ccc(F)cc1Cl (stereo unspecified) -7.59%
Cc1cccc(NS(=O)(=O)c2ccc(NC(=O)N3CCCC3)cc2)c1 -8.62%
CCOC(=O)c1cc(C)n(CC2CCC(C(=O)Nc3ccc(C(=O)OC)cc3)CC2)c1C (stereo unspecified) -9.44%
Cc1ccccc1CNC(=O)Nc1ccc2c(c1)N(C)C(=O)c1ccccc1S2 -28.1%
COc1ccc(C2CC(=O)N(Cc3ccccc3)c3c2c(C)nn3-c2nc(C)cc(C)n2)c(OC)c1 (stereo unspecified) -13.6%
CCC(=O)N1CCc2cc(Br)cc(S(=O)(=O)CCC(=O)NCCc3ccccc3)c21 -14.9%
CCc1ccccc1NC(=O)Cn1cc2c(n1)CCC(C)C2 (stereo unspecified) 2.79%
O=c1cc(-c2ccccc2)c2ccc3c(c2o1)CN(Cc1ccccc1)CO3 6.25%
CCc1ccc(NS(=O)(=O)c2ccc3[nH]cc(C(=O)N(C)Cc4ccco4)c(=O)c3c2)cc1 0.447%
CC(C)CN(CCNC(=O)c1cn(C)c2ccc(S(=O)(=O)N3CCCC3)cc2c1=O)CC(C)C -12.1%
CCCN(C(=O)CCNC(=O)Cn1cnc2ccccc2c1=O)c1cccc(C)c1 11.1%
Cc1nn(-c2ccc(N3CCCCC3)nn2)c(C)c1CCC(=O)NCc1ccc(Cl)cc1 -23.6%
CCC(C)NC(=O)c1sc2ncccc2c1-n1c(C)ccc1C (stereo unspecified) -14.7%
CCCc1cc(=O)[nH]c(Nc2cc(Cl)ccc2OC)n1 -4%
Cc1ccc(-n2nc(C(=O)N3CCN(c4cccc(C(F)(F)F)c4)CC3)c3c4ccccc4n(C)c3c2=O)cc1 -2.46%
CCOc1cc(C2c3c(oc4ccccc4c3=O)C(=O)N2c2ccccn2)ccc1O (stereo unspecified) 6.08%
Cc1ccc(C)c(-c2[nH]c3c(c2-c2c(-n4cccc4)n(C)c(=O)n(C)c2=O)c(=O)n(C)c(=O)n3C)c1 1.13%
Cc1cccc(NC(=O)COc2cccc3c(=O)n(C)ccc23)c1C -9.6%
CCOC(=O)c1ccc2[nH]c(CSc3nnc(-c4cccc(F)c4)n3C)cc(=O)c2c1 -1.77%
Cc1ccc(CNc2cc(C)nc3nc(-c4cccc(C)c4)nn23)cc1 -19.1%
COc1ccc(OC)c(NC(=O)c2cc(=O)c3c(C)cc(C)cc3o2)c1 2.19%
CCOC(=O)c1c(NC(=O)c2cc(Cl)ccc2Cl)sc2c1CCCC2 5.11%
Cc1ccc(CNc2nccn(-c3cc(C)cc(C)c3)c2=O)cc1 -7.37%
CN(C(=O)CSc1nc2ccc(NC(=O)COc3ccccc3)cc2s1)c1ccccc1 -16.6%
Cc1cn2c(=O)c(S(=O)(=O)NCc3ccccc3Cl)c(C)nc2s1 2.98%
Cc1cc(C)n(CCc2nc3c4ccccc4nc(N4CCN(c5ccc(F)cc5)CC4)n3n2)n1 -0.421%
CCN(C(=O)CSc1nc2n[nH]c(C)c2c(=N)n1-c1cccc(OC)c1)c1cccc(C)c1 -27.7%
COc1ccc(-c2ccc(CCC(=O)O)n2-c2ccc(Cl)cc2C)cc1 -21.8%
CCOC(=O)c1cccc(NC(=O)CCc2c(C)nn(-c3ccc(N4CCOCC4)nn3)c2C)c1 -9.32%
COc1ccc(C2Oc3nc(SC)nnc3-c3ccccc3N2C(C)=O)cc1 (stereo unspecified) 8.7%
CCc1ccc(-n2nc(CO)c(C(=O)NCc3ccccc3OC)n2)cc1 -4.27%
COCCCn1c(=O)c2sccc2n2c(CCCC(=O)NCc3ccc(F)cc3)nnc12 -2.45%
